Test results as given in the supplement of paper PMC12217912.
This is one part of the list. Sequences were assembled here from the parent chain. Inactive controls read about 0.05.

B1: TEV protease; numbered along this chain (parent)
chain: MGESLFKGPRDYNPISSSICHLTNESDGHTTSLYGIGFGPFIITNKHLFRRNNGTLVVQSLHGVFKVKDTTTLQQHLVDGRDMIIIRMPKDFPPFPQKLKFREPQREERICLVTTNFQTKSMSSMVSDTSCTFPSGDGIFWKHWIQTKDGQCGSPLVSTRDGFIVGIHSASNFTNTNNYFTSVPKNFMELLTNQEAQQWVSGWRLNADSVLWGGHKVFMVKPEEPFQPVKEATQL

Variants of: B1
Assay: raw area under fraction-flipped curve 0-4 h after induction (AUC4h, not background-subtracted), DNA-recorder readout of cleavage of the substrate (dimensionless); higher = more cleavage of the substrate by the protease variant
Conditions: temperature: 34 °C; time window: 0-4 h after rhamnose induction
Method: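 In vivo DNA recorder in E. coli TOP10(DE3) ΔrhaA at 34 °C. Each TEVp single-site mutant (parent TEVp 0) is paired with a single-site variant of the 7-mer TEVs (canonical ENLYFQ|S). The substrate sits between flexible linkers in a Bxb1-sfGFP-TEVs-SsrA fusion, so cleavage stabilises Bxb1 and speeds flipping of a recombination array, read by NGS. The value is the raw area under the fraction-flipped curve over 0-4 h after rhamnose induction (AUC4h), with ≥20 reads per time point. It is not background-subtracted; inactive controls average about 0.047.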
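Also: Bxb1 expression induced with 0.2% (w/v) L-rhamnose at OD600 near 0.5, cultures sampled hourly, flipped fraction per protease–substrate barcode pair counted by paired-end Illumina sequencing.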

Variant | area with substrate ENLYFAS | area with substrate ENLYFES | area with substrate ENLYFFS | area with substrate ENLYFGS | area with substrate ENLYFIS | area with substrate ENLYFKS | area with substrate ENLYFMS | area with substrate ENLYFPS | area with substrate ENLYFRS | area with substrate ENLYFTS | area with substrate ENLYFWS | area with substrate ENLYFYS | area with substrate ENLYFCS | area with substrate ENLYFDS | area with substrate ENLYFNS | area with substrate ENLYFSS | area with substrate ENLYFVS | area with substrate ENLYFHS | area with substrate ENLYFLS
MGESLFKGPRDYNPISSSICHLTNESDGHTTSLYGIGFGPFIITNKHLFRRNNGTLVVQSLHGVFKVKDTTTLQQHLVDGRDMIIIRMPKDFPPFPQKLKFREPQREERICLVTTNFQTKSMSSMVSDTSCTFPSGDGIFWKHWIQTKDGQCGSPLVSTRDGFIVGIHSASNFTNTNNYFTSVPKNFMELLTNQEAQQWVSGWRLNADSVLWGGHKVFMVKPEEPFQPVKAATQL [E231A] | 0.0656 | 0.0716 | 0.0817 | 0.0643 | 0.0482 | 0.0591 | 0.0404 | 0.062 | 0.0654 | 0.0581 | 0.0529 | 0.0504 | – | – | – | – | – | – | –
MGESLFKGPRDYNPISSSICHLTNESDGHTTSLYGIGFGPFIITNKHLFRRNNGTLVVQSLHGVFKVKDTTTLQQHLVDGRDMIIIRMPKDFPPFPQKLKFREPQREERICLVTTNFQTKSMSSMVSDTSCTFPSGDGIFWKHWIQTKDGQCGSPLVSTRDGFIVGIHSASNFTNTNNYFTSVPKNFMELLTNQEAQQWVSGWRLNADSVLWGGHKVFMVKPEEPFQPVKQATQL [E231Q] | 0.0597 | 0.0599 | 0.0407 | – | 0.0564 | 0.0533 | – | 0.0639 | – | 0.0664 | 0.062 | – | 0.0766 | 0.0641 | 0.0569 | 0.0641 | 0.0495 | – | –
MGESLFKGPRDYNPISSSICHLTNESDGHTTSLYGIGFGPFIITNKHLFRRNNGTLVVQSLHGVFKVKDTTTLQQHLVDGRDMIIIRMPKDFPPFPQKLKFREPQREERICLVTTNFQTKSMSSMVSDTSCTFPSGDGIFWKHWIQTKDGQCGSPLVSTRDGFIVGIHSASNFTNTNNYFTSVPKNFMELLTNQEAQQWVSGWRLNADSVLWGGHKVFMVKPEEPFQPVPEATQL [K230P] | 0.0556 | 0.0702 | 0.0637 | – | 0.0577 | – | 0.0529 | 0.0609 | – | 0.0643 | 0.0649 | – | – | 0.0769 | – | 0.0471 | – | 0.049 | 0.0533
MGESLFKGPRDYNPISSSICHLTNESDGHTTSLYGIGFGPFIITNKHLFRRNNGTLVVQSLHGVFKVKDTTTLQQHLVDGRDMIIIRMPKDFPPFPQKLKFREPQREERICLVTTNFQTKSMSSMVSDTSCTFPSGDGIFWKHWIQTKDGQCGSPLVSTRDGFIVGIHSASNFTNTNNYFTSVPKNFMELLTNQEAQQWVSGWRLNADSVLWGGHKVFMVKPEEPFQPVFEATQL [K230F] | 0.0607 | 0.0694 | 0.0724 | 0.0532 | 0.0642 | 0.0631 | 0.0714 | 0.0645 | – | 0.0514 | – | 0.0611 | – | 0.064 | 0.066 | 0.0552 | 0.0608 | 0.0616 | –
MGESLFKGPRDYNPISSSICHLTNESDGHQTSLYGIGFGPFIITNKHLFRRNNGTLVVQSLHGVFKVKDTTTLQQHLVDGRDMIIIRMPKDFPPFPQKLKFREPQREERICLVTTNFQTKSMSSMVSDTSCTFPSGDGIFWKHWIQTKDGQCGSPLVSTRDGFIVGIHSASNFTNTNNYFTSVPKNFMELLTNQEAQQWVSGWRLNADSVLWGGHKVFMVKPEEPFQPVKEATQL [T30Q] | – | 0.056 | 0.0521 | 0.0611 | 0.05 | 0.0578 | 0.0723 | 0.0447 | 0.0451 | 0.0714 | 0.0647 | 0.0603 | 0.0618 | – | 0.0626 | – | 0.0787 | 0.0634 | 0.068
MGESLQKGPRDYNPISSSICHLTNESDGHTTSLYGIGFGPFIITNKHLFRRNNGTLVVQSLHGVFKVKDTTTLQQHLVDGRDMIIIRMPKDFPPFPQKLKFREPQREERICLVTTNFQTKSMSSMVSDTSCTFPSGDGIFWKHWIQTKDGQCGSPLVSTRDGFIVGIHSASNFTNTNNYFTSVPKNFMELLTNQEAQQWVSGWRLNADSVLWGGHKVFMVKPEEPFQPVKEATQL [F6Q] | – | 0.052 | 0.06 | – | 0.0454 | – | 0.0805 | – | – | – | 0.0592 | 0.0581 | 0.0718 | – | – | – | 0.0434 | 0.0592 | –
MGESLFKGPRDYNPISSSICHLTNESDGHTTSLYGIGFGPFIITNKHLFRRNNGTLVVQSLHGVFKVKDTTTLQQHLVDGRDMIIIRMPKDFPPFPQKLKFREPQREERICLVTTNFQTKSMSSMVSDTSCTFPSGDGIFWKHWIQTKDGQCGSPLVSTRDGFIVGIHSASNFTNTNNYFTSVPKNFMELLTNQEAQQWVSGWRLNADSVLWGGHKVFMVKPEEPFQPVKEANQL [T233N] | 0.045 | 0.071 | 0.0724 | 0.0662 | 0.0566 | 0.0672 | 0.0872 | 0.0485 | 0.0599 | 0.0514 | – | 0.052 | – | – | 0.062 | – | 0.0488 | 0.0679 | 0.0561
MGESLFKGPRDYNPISSSICHLTNESDGHTTSLYGIGFGPFIITNKHLFRRNNGTLVVQSLHGVFKVKDTTTLQQHLVDGRDMIIIRMPKDFPPFPQKLKFREPQREERICLVTTNFQTKSMSSMVSDTSCTFPSGDGIFWKHWIQTKDGQCGSPLVSTRDGFIVGIHSASNFTNTNNYFTSVPKNFMELLTNQEAQQWVSGWRLNADSVLWGGHKVFMVKPEEPFQPVKEARQL [T233R] | 0.0711 | 0.0719 | 0.0649 | – | 0.0606 | – | 0.064 | 0.0577 | – | 0.0458 | 0.0575 | 0.064 | 0.0719 | 0.055 | – | – | 0.0538 | 0.0527 | 0.0646
MGESLFKGPRDYNPISSSICHLTNESDGHTKSLYGIGFGPFIITNKHLFRRNNGTLVVQSLHGVFKVKDTTTLQQHLVDGRDMIIIRMPKDFPPFPQKLKFREPQREERICLVTTNFQTKSMSSMVSDTSCTFPSGDGIFWKHWIQTKDGQCGSPLVSTRDGFIVGIHSASNFTNTNNYFTSVPKNFMELLTNQEAQQWVSGWRLNADSVLWGGHKVFMVKPEEPFQPVKEATQL [T31K] | – | 0.0701 | 0.0636 | 0.0586 | 0.0489 | – | 0.0552 | 0.0472 | 0.0567 | 0.056 | 0.0684 | 0.0739 | 0.0598 | 0.0483 | 0.0437 | – | 0.0539 | – | 0.0654
